Assay results published in ChEMBL document CHEMBL5303300, “EUbOPEN Chemogenomics Library - Multiplex” (2023).

Experiments:
Format in all cases: toxicity, cell-based
HEK-293T = experiment: Multiplex assay against HEK293T; conditions: human, number of replicates 2
Procedure, shortened: (§1)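 At seeding, live cells were stained with Hoechst33342, BioTracker Green Microtubule Cytoskeleton Dye, MitoTracker Red and Annexin V Alexa Fluor 680. After compound addition they were imaged on a CQ1 microscope at 37°C and 5% CO2, and CellPathfinder machine-learning gating sorted them into Hoechst high-intensity objects or normal cells, with normal cells further split into healthy, pyknosed or fragmented nuclei and pyknosed cells into mitotic or apoptotic. Tubulin, mitochondrial-mass and membrane-permeability phenotypes are given as per cents of cells with healthy nuclei.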

Fibroblast = experiment: Multiplex assay against human fibroblast; conditions: 1 µM, compound concentration 1 uM, number of replicates 2; procedure, shortened: as §1
U2OS = experiment: Multiplex assay against U2OS; conditions: human, number of replicates 2; procedure, shortened: as §1
[1] = 48 h, 1 µM, compound concentration 1 uM
[2] = 12 h, 1 µM, compound concentration 1 uM
[3] = 12 h, 10 µM, compound concentration 10 uM
[4] = 24 h, 1 µM, compound concentration 1 uM
[5] = 24 h, 10 µM, compound concentration 10 uM
[6] = 48 h, 10 µM, compound concentration 10 uM

CN(C)C/C=C/C(=O)Nc1cccc(S(=O)(=O)N2CCC(NC(=O)c3n[nH]cc3NC(=O)c3c(Cl)cc(Cl)cc3Cl)CC2)c1
Population Mitotic Cells (%) (HEK-293T; [1]): 7% and 26% | Population Mitochondria Different-Phenotype (%) (Fibroblast; 48 h): 1% and 13% | Population Mitochondria Different-Phenotype (%) (U2OS; [2]): 5% and 23% | Total Cell Count (U2OS; [2]): 40 and 161 | Total Cell Count (U2OS; [3]): 206 and 53 | Population Mitotic Cells (%) (U2OS; [4]): 34% and 6% | Total Cell Count (U2OS; [4]): 51 and 166 | Total Cell Count (U2OS; [5]): 45 and 186 | Population Fragmented Nuclei (%) (U2OS; [1]): 30% and 7% | Population Membrane Permeable-Phenotype (%) (U2OS; [1]): 0% and 35% | Population Mitochondria Different-Phenotype (%) (U2OS; [1]): 0% and 46% | Population Mitotic Cells (%) (U2OS; [1]): 23% and 2% | Total Cell Count (U2OS; [1]): 45 and 172 | Total Cell Count (U2OS; [6]): 43 and 175

COc1cc(N2CCN(C)CC2)ccc1Nc1ncc2c(n1)N(C)c1ccccc1C(=O)N2CC(F)(F)F
Population Apoptotic (%) (HEK-293T; [1]): 17% and 4% | Population Mitochondria Different-Phenotype (%) (U2OS; [2]): 3% and 16% | Total Cell Count (U2OS; [2]): 43 and 282 | Population Fragmented Nuclei (%) (U2OS; [3]): 16% and 2% | Total Cell Count (U2OS; [3]): 37 and 167 | Population Fragmented Nuclei (%) (U2OS; [4]): 15% and 2% | Total Cell Count (U2OS; [4]): 39 and 367 | Total Cell Count (U2OS; [5]): 33 and 194 | Population Fragmented Nuclei (%) (U2OS; [1]): 14% and 3% | Total Cell Count (U2OS; [1]): 54 and 564 | Population Healthy Nuclei (%) (U2OS; [6]): 16% and 54% | Total Cell Count (U2OS; [6]): 43 and 230

Br.Oc1cc2c(cc1O)C(c1ccccc1)CNCC2 (centres undefined)
Population Apoptotic (%) (HEK-293T; [6]): 3% and 15% | Population Mitotic Cells (%) (Fibroblast; 12 h): 13% and 55% | Population Mitotic Cells (%) (Fibroblast; 48 h): 10% and 45% | Population Apoptotic (%) (U2OS; [2]): 0% and 50% | Total Cell Count (U2OS; [2]): 50 and 286 | Population Fragmented Nuclei (%) (U2OS; [3]): 27% and 4% | Population Pyknosed Nuclei (%) (U2OS; [3]): 38% and 10% | Total Cell Count (U2OS; [3]): 18 and 223 | Total Cell Count (U2OS; [4]): 49 and 385 | Population Fragmented Nuclei (%) (U2OS; [5]): 17% and 2% | Total Cell Count (U2OS; [5]): 17 and 343 | Total Cell Count (U2OS; [1]): 98 and 728 | Population Fragmented Nuclei (%) (U2OS; [6]): 20% and 2% | Population Pyknosed Nuclei (%) (U2OS; [6]): 25% and 6% | Total Cell Count (U2OS; [6]): 35 and 662

CNC(=O)c1nn(C)c2c1C(C)(C)Cc1cnc(Nc3ccc(N4CCN(C)CC4)cc3)nc1-2 [MILCICLIB]
Population Mitotic Cells (%) (HEK-293T; [3]): 28, 36, 5, 19% | Population Mitotic Cells (%) (HEK-293T; [5]): 26, 16, 5, 29% | Population Fragmented Nuclei (%) (U2OS; [3]): 17, 14, 4, 3% | Population Membrane Permeable-Phenotype (%) (U2OS; [3]): 45, 35, 12, 18% | Total Cell Count (U2OS; [3]): 46, 41, 193, 200 | Population Fragmented Nuclei (%) (U2OS; [5]): 14, 25, 3, 4% | Population Membrane Permeable-Phenotype (%) (U2OS; [5]): 14, 50, 22, 20% | Total Cell Count (U2OS; [5]): 49, 44, 190, 187 | Population Fragmented Nuclei (%) (U2OS; [6]): 7, 33, 5, 8% | Total Cell Count (U2OS; [6]): 42, 45, 172, 186

N[C@@H]1c2cccnc2[C@H](OC(=O)N2CCC(n3c(=O)[nH]c4ncccc43)CC2)CC[C@H]1c1cccc(F)c1F [RIMEGEPANT]
Population Mitochondria Different-Phenotype (%) (HEK-293T; [5]): 27% and 7% | Population Fragmented Nuclei (%) (Fibroblast; 24 h): 4% and 20% | Total Cell Count (U2OS; [2]): 53 and 243 | Total Cell Count (U2OS; [3]): 42 and 248 | Total Cell Count (U2OS; [4]): 57 and 338 | Total Cell Count (U2OS; [5]): 48 and 367 | Total Cell Count (U2OS; [1]): 92 and 659 | Total Cell Count (U2OS; [6]): 57 and 614

O=S(=O)(c1ccccc1)N(CC(F)(F)F)c1ccc(C(O)(C(F)(F)F)C(F)(F)F)cc1 [T091317]
Population Apoptotic (%) (HEK-293T; [1]): 9% and 31% | Population Fragmented Nuclei (%) (U2OS; [2]): 27% and 4% | Population Membrane Permeable-Phenotype (%) (U2OS; [2]): 16% and 1% | Total Cell Count (U2OS; [2]): 41 and 224 | Population Fragmented Nuclei (%) (U2OS; [3]): 35% and 6% | Total Cell Count (U2OS; [3]): 39 and 183 | Population Fragmented Nuclei (%) (U2OS; [4]): 36% and 4% | Population Membrane Permeable-Phenotype (%) (U2OS; [4]): 13% and 1% | Population Mitotic Cells (%) (U2OS; [4]): 0% and 43% | Total Cell Count (U2OS; [4]): 65 and 326 | Population Fragmented Nuclei (%) (U2OS; [5]): 20% and 5% | Total Cell Count (U2OS; [5]): 49 and 217 | Population Fragmented Nuclei (%) (U2OS; [1]): 24% and 2% | Total Cell Count (U2OS; [1]): 63 and 643 | Total Cell Count (U2OS; [6]): 317 and 65

Not every entry of the source has a single result; some have several. This is not the full list of results. An entry can have further records. The records of an entry are repeated measurements across runs, samples, wells, individuals or studies.
